Measurements reported in PubChem BioAssay AID624170 (National Center for Advancing Translational Sciences (NCATS), 2012).
In all, about 410,000 compounds went through this assay and about 850 (0.21%) were called active. The shares of active, inactive and inconclusive entries below differ from those in the screen. Calls follow the shape of the dose curve; as a rule, active = well fitted inhibition curve with a large enough effect; inconclusive = small, poorly fitted or top-dose-only effect, or another doubt; inactive = no such curve, though single readings can be large or run the other way. Potencies beside an inconclusive call are fits to weak or partial responses and may not hold up.

biological target: Glutaminase kidney isoform, mitochondrial (Homo sapiens) (UniProt O94925); experiment: qHTS for Inhibitors of Glutaminase (GLS); conditions: GLS enzymatic activity, qHTS titration; series mostly up to 45.5 µM
UniProt O94925, sequence (O94925 whole entry, looked up, canonical isoform): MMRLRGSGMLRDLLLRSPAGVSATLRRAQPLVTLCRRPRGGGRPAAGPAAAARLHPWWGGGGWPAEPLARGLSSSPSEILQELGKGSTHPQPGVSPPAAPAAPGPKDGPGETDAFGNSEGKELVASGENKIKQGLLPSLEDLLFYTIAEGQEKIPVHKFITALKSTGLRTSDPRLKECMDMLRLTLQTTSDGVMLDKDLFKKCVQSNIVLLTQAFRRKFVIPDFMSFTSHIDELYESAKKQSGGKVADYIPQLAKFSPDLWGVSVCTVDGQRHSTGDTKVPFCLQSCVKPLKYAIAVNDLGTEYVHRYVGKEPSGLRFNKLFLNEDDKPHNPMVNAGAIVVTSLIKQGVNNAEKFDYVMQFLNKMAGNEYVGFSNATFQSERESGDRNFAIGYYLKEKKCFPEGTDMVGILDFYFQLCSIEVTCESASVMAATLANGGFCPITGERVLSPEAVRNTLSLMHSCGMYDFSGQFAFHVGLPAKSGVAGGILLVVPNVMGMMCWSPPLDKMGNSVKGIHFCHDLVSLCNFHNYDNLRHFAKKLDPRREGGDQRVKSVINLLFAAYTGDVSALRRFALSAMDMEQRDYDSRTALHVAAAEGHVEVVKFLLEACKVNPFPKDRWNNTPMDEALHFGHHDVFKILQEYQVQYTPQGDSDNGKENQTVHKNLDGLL
Source text: Glutaminase (GLS) catalyzes the hydrolysis of glutamine into glutamate and ammonia. It plays a critical role in glutaminolysis, which is an important energy source for proliferating cells. It was shown that c-Myc, an oncogenic transcription factor known to regulate microRNAs and to stimulate cell proliferation, increases glutamine metabolism by stimulating the expression of GLS via direct suppression of miR23a and miR23b.
GLS is also thought to play a pathogenic role on HAD using a human HIV-1 infected macrophage system. […] GLS inhibition limits glutamate release and provides neuroprotection against HIV-1 infected macrophages.
The overall goal of this project is to identify small molecule inhibitors of GLS through quantitative high throughput screening (qHTS) of the MLSMR. A validated potent and selective inhibitor can be used as a tool molecule to further study the pharmacology of its target as well as explore its potential therapeutic application in cancer and inflammatory neurological disorders, such as HIV1-associated dementia (HAD) and multiple sclerosis.
NIH Chemical Genomics Center [NCGC]
NIH Molecular Libraries Probe Centers Network [MLPCN]
Assay Submitter (PI): Barbara S. Slusher, Johns Hopkins University
Three 3 uL of hKGA is dispensed into black well 1536-well plates in 45 mM KH2PO4 (pH 8.2), 0.02% Tween-20. Then 23 nL of compounds are added through pin tool transfer. To this, 1 uL of 1mM L-Glutamine and 1 uL of a solution of L-Glutamateoxidase, HRP, Amplex red are added. Plate is centrifuged for 25 sec before an initial fluorescence read is obtained on the ViewLux, after 30 min of RT incubation, the final read is taken on the ViewLux.
Potency is read from the fitted curve at half-maximal effect; tags tell the direction and shape of the fitted curve.

Potency, inactive:
O=C(Nc1ccc2nc(SCC(=O)N3CCCc4ccccc43)sc2c1)c1cccc(Cl)c1
O=C(c1cc2ccccc2oc1=O)N(Cc1ccccc1)CC1CCCO1 (centres undefined)
COc1ccccc1NC(=O)CSc1nnc2ccc(-c3cccnc3)nn12
COc1cccc(OCC(=O)N(C)Cc2nc(-c3cccc(C)c3)no2)c1
O=C1CSC(=S)N1c1ccc(F)c(Cl)c1
NC(=O)c1ccc(N2CCN(S(=O)(=O)c3cccs3)CC2)c([N+](=O)[O-])c1
CC(C)[C@@H]1Cc2[nH]c(=O)[nH]c(=O)c2[C@H](C)O1
CC(C)C(=O)NC(=S)/C=C1/N(C)c2ccccc2C1(C)C
COc1ccccc1-c1nnc(C2CCN(S(=O)(=O)c3ccc(CC(C)C)cc3)CC2)o1
COc1cc([N+](=O)[O-])ccc1NC(=O)Nc1cnccn1
CCCc1c(C(=O)OCC)sc(N)c1C#N
c1cnc2c(c1)ccc1cccnc12
COc1ccc(NC(=O)c2oc3ccccc3c2NC(=O)C23CC4CC(CC(C4)C2)C3)cc1
CCC(=O)Nc1cccc(SC)c1
Cc1nc2nc(SCC(=O)NC3CCC(C)CC3)nn2c(C)c1Cc1ccccc1Cl (centres undefined)
COc1ccc(NC(=O)COC(=O)c2ccc3c(c2)OCCO3)cc1OC
Cn1cnnc1SCC(=O)Nc1sc2c(c1C(N)=O)CCC2
O=C(/C=C/c1ccco1)NC(=S)Nc1cccc([N+](=O)[O-])c1
N#Cc1c(C(F)(F)F)cc(-c2cccs2)nc1SCC(=O)Nc1ccccc1F
O=C1CCCCc2sc(Br)c([N+](=O)[O-])c2N1

Potency, inconclusive:
Cc1cccc(-n2c(Cc3ccccc3)n[nH]c2=S)c1 5.62 µM [inhibitor, single point]
COC(=O)c1cc(NS(=O)(=O)c2ccc(C)c3ccccc23)ccc1N1CCOCC1 20 µM [inhibitor, single point]
Cc1ccccc1NC(=O)CN1C(=O)S/C(=C\c2cccn2-c2cccc(C(=O)O)c2)C1=O 35.5 µM [inhibitor, partial curve, poor fit]
COCc1cc(C)nc(OCC(=O)N/N=C/c2ccc(O)cc2)c1C#N 35.5 µM [inhibitor, single point]
O=C(CSC1=Nc2ccccc2C2=NC(c3ccccc3)C(=O)N12)NCC1CCCO1 (centres undefined) 14.1 µM [inhibitor, partial curve]
O=C(Nc1cc([N+](=O)[O-])ccc1Cl)c1cccnc1 3.55 µM [inhibitor, single point]
O=C(/C=C/c1c(Cl)nc2ccccn12)N1CCCCC1 22.4 µM [inhibitor, single point]
O=C1NN(c2ccccc2)C(=O)/C1=C/c1ccc(-c2cccc(C(=O)O)c2)o1 35.5 µM [inhibitor, single point]
O=C1NC(=S)S/C1=C\c1ccc(SCc2ccccc2)o1 31.6 µM [inhibitor, single point]
COc1ccc(NS(=O)(=O)c2cccc(C(=O)N/N=C/c3ccccc3OC)c2)cc1 11.2 µM [inhibitor, partial curve, poor fit]
Cc1cc(O)cc(O)c1-c1onc(C(F)(F)F)c1-c1cscn1 35.5 µM [inhibitor, single point]
CCN(CC)c1nc(NN)nc(Nc2ccc(C)c(Cl)c2)n1 20 µM [inhibitor, single point]
Cc1nc2ccccc2c(=O)n1/N=C/c1cccs1 28.2 µM [inhibitor, single point]
CCNc1nc(SCC(N)=O)nc2sc3c(c12)CCN(C)C3 10 µM [inhibitor, partial curve]
Cc1c(C(=O)OC(C)C(C)C[N+](C)(C)C)oc2ccccc12 (centres undefined) 5.62 µM [inhibitor, single point]
CC(=O)c1c(C)[nH]c(C(=O)N2CCCCCC2)c1C 35.5 µM [inhibitor, single point]
COc1cc(/C=C2\SC(=Nc3ccc(O)cc3)NC2=O)cc(OC)c1O 5.62 µM [inhibitor, full curve]
CC(C)C(OC(=O)c1cccs1)C(=O)NCc1ccco1 (centres undefined) 35.5 µM [inhibitor, single point]
CC(=O)N(CC(=O)Nc1sc(C)c(C)c1C(N)=O)Cc1ccccc1 6.31 µM [inhibitor, single point]
O=C(CSc1nnc(-c2cccs2)n1CC1CCCO1)c1cc2ccccc2o1 (centres undefined) 15.8 µM [inhibitor, partial curve]
Nc1nc(N2CCN(C(c3ccccc3)c3ccccc3)CC2)n[nH]1 3.98 µM [inhibitor, partial curve, poor fit]
CCn1nc(C)cc1-c1nnc(Sc2ncc([N+](=O)[O-])s2)n1C 35.5 µM [inhibitor, single point]
CCN(CC)Cc1c(O)c(Cl)cc2c3c(c(=O)oc12)CCCC3 17.8 µM [inhibitor, single point]
Cc1ccc(/C=C/c2nc3sc(C(=O)O)c(C)c3c(=O)[nH]2)cc1[N+](=O)[O-] 35.5 µM [inhibitor, single point]
CCOC(=O)C1(Cc2ccccc2C)CCCN(Cc2cc(OC)c(O)c(OC)c2)C1 (centres undefined) 35.5 µM [inhibitor, single point]
COc1ccc2nc3ccccc3nc2c1N 11.2 µM [inhibitor, partial curve]
Cc1ccc(/C=N/n2c(-c3ccccc3)n[nH]c2=S)cc1 20 µM [inhibitor, single point]
COc1cc2c(cc1OC)C(C1C(=O)CC(C)CC1=O)N(C(=O)CCl)CC2 (centres undefined) 3.55 µM [inhibitor, single point]
O=C(NC1CCCCC1)c1ccc(S(=O)(=O)NCc2ccco2)cc1 25.1 µM [inhibitor, single point]
C[C@@H]1[C@H](O)[C@@H](C)/C=C/C=C/C=C/C=C/C=C/C=C/C=C/[C@H](O[C@@H]2O[C@H](C)[C@@H](O)[C@H](N)[C@@H]2O)C[C@@H]2O[C@](O)(C[C@@H](O)C[C@@H](O)[C@H](O)CC[C@@H](O)C[C@@H](O)CC(=O)O[C@H]1C)C[C@H](O)[C@H]2C(=O)O 35.5 µM [inhibitor, partial curve, poor fit]
Cc1ccc2nc(N=C(N)N)nc(C)c2c1 3.98 µM [inhibitor, single point]
Cc1ccc(Cn2cccc2/C=N/NC(=S)Nc2ccc(C)cc2)cc1 17.8 µM [inhibitor, partial curve, poor fit]
CCC(C)(C)n1nnnc1C(c1cc(OC)ccc1OC)N1CCN(Cc2ccccc2)CC1 (centres undefined) 35.5 µM [inhibitor, single point]
Cc1cc2oc(=O)cc(CN3CCN(c4ccccc4)CC3)c2cc1Cl 35.5 µM [inhibitor, single point]
CN(CC(=O)Nc1ccccc1C(F)(F)F)Cc1c(O)ccc2ccccc12 11.2 µM [inhibitor, partial curve]
CCOc1ccc(C(c2c(C)n(C)n(-c3ccccc3)c2=O)c2c(C)n(C)n(-c3ccccc3)c2=O)c(O)c1 5.01 µM [inhibitor, partial curve]
CC(C)(O)CCCC(C)(O)c1ccc(C(=O)O)cc1O (centres undefined) 35.5 µM [inhibitor, single point]
Cc1ccc(NC(=S)NCC2CCCO2)cc1C (centres undefined) 6.31 µM [inhibitor, single point]
O=C(c1ccccc1)c1ccc2nc(-c3ccco3)c(-c3ccco3)nc2c1 10 µM [inhibitor, partial curve]
COc1ccccc1N1CC(C)(C)C(=O)N(C(=O)c2ccc(C)cc2)C1=S 35.5 µM [inhibitor, single point]
O=C(Nc1ccccc1)c1nnsc1S(=O)c1ccc(Cl)cc1 (centres undefined) 11.2 µM [inhibitor, partial curve]
S=C1NC=NC2N=CNC12 (centres undefined) 28.2 µM [inhibitor, partial curve]
O=[N+]([O-])c1ccc(C2=Nn3c(Cn4nnc5ccccc54)nnc3SC2)cc1 35.5 µM [inhibitor, single point]
Cc1ccc(OCC(=O)Nc2cccc(OCc3cc(=O)n4cccc(C)c4n3)c2)cc1C 7.08 µM [inhibitor, full curve]
CC(C)(C)c1ccc(OCC(=O)NNC(=S)NC(=O)c2ccccc2[N+](=O)[O-])c(Br)c1 35.5 µM [inhibitor, single point]
O=C(Cc1noc2ccccc12)NNC(=S)Nc1ccccc1 10 µM [inhibitor, partial curve]
CCOC(=O)c1cc2c(=O)c3cc(C)ccc3oc2nc1C 35.5 µM [inhibitor, single point]

Potency, active:
Oc1ccc(Nc2nc(-c3cccnc3)cs2)cc1 5.01 µM
COc1ccccc1Cn1c(=O)c2ccccc2n2c(SCC(=O)N3CCCCC3)nnc12 15.8 µM
